Laboratory results taken from the supplement of paper PMC4967469.
pIC50: −log10 of the molar value. By IC50 is meant the dose at which the fit gives 50% viability; fits outside the tested doses are given as limits. AUC is the area under the same curve over the 256-fold range up to the top dose, as a fraction; it is 1 without any effect and falls as sensitivity rises. For some assays here: Any top dose called inferred is not printed in the source and was worked back from the curve model.

Legend:
Experiment in all cases: Viability of human cancer cell lines after 72 h of drug (GDSC screen)
CX-5461 = compound: Cc1cnc(CNC(=O)c2c(=O)c3ccc(N4CCCN(C)CC4)nc3n3c2sc2ccccc23)cn1 [CX-5461]; conditions: top dose 10.24 µM; top dose inferred
Experimental: (§1)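 Human cancer cell lines in 384-well plates, medium with 10% serum, drug for 72 h over a 256-fold dose range (nine 2-fold or five 4-fold steps up to the top dose). Adherent lines were fixed and stained with the nucleic acid dye Syto60, suspension lines read with resazurin; signal relative to control wells, capped at 0 and 100%. One two-parameter sigmoid per drug and line, fitted in a mixed model over all curves with the slope shared within a line.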

STF-62247 = compound: Cc1cccc(Nc2nc(-c3ccncc3)cs2)c1 [STF-62247]; conditions: top dose 10.24 µM; top dose inferred
Experimental: as §1

CP724714 = compound: COCC(=O)NC/C=C/c1ccc2ncnc(Nc3ccc(Oc4ccc(C)nc4)c(C)c3)c2c1 [CP724714]; conditions: top dose 10.24 µM; top dose inferred
Experimental: as §1

ZSTK474 = compound: FC(F)c1nc2ccccc2n1-c1nc(N2CCOCC2)nc(N2CCOCC2)n1 [ZSTK474]
Experimental: as §1

Cell Line	AUC (CX-5461)	pIC50 (CX-5461)	AUC (STF-62247)	pIC50 (STF-62247)	AUC (CP724714)	pIC50 (CP724714)	AUC (ZSTK474)	pIC50 (ZSTK474)
CADO-ES1 (Ewing sarcoma, suspension)	0.642	5.80	0.988	< 4.99	0.974	< 4.99	–	–
CHP-134 (neuroblastoma, suspension)	0.317	6.77	0.979	< 4.99	0.98	< 4.99	–	–
CHSA8926 (chondrosarcoma, adherent)	0.98	< 4.99	0.979	< 4.99	0.97	< 4.99	–	–
COR-L303 (small cell lung carcinoma, suspension)	0.932	< 4.99	0.938	< 4.99	0.987	< 4.99	–	–
COR-L321 (lung, suspension)	0.896	< 4.99	0.976	< 4.99	0.987	< 4.99	–	–
D-423MG (glioma, adherent)	0.88	< 4.99	0.958	< 4.99	0.935	< 4.99	–	–
D-566MG (glioma, adherent)	0.786	5.36	0.972	< 4.99	0.984	< 4.99	–	–
DOV13 (ovary, adherent)	0.868	< 4.99	0.966	< 4.99	0.978	< 4.99	–	–
EMC-BAC-1 (lung adenocarcinoma, adherent)	0.899	< 4.99	0.849	5.03	0.892	< 4.99	–	–
EMC-BAC-2 (lung adenocarcinoma, adherent)	0.91	< 4.99	0.981	< 4.99	0.967	< 4.99	–	–
ESO26 (oesophagus, adherent)	0.569	6.01	0.989	< 4.99	0.75	5.50	–	–
ESO51 (oesophagus, semi-adherent)	0.754	5.32	0.937	< 4.99	0.965	< 4.99	–	–
FLO-1 (oesophagus, adherent)	0.936	< 4.99	0.963	< 4.99	0.958	< 4.99	–	–
G-292 Clone A141B1 (osteosarcoma, adherent)	0.963	< 4.99	0.968	< 4.99	0.975	< 4.99	–	–
Hey (ovary, adherent)	0.726	5.57	0.983	< 4.99	0.987	< 4.99	–	–
Hs746T (stomach, adherent)	0.947	< 4.99	0.967	< 4.99	0.597	5.89	–	–
JHOS-2 (ovary, adherent)	0.922	< 4.99	0.981	< 4.99	0.976	< 4.99	–	–
JHOS-3 (ovary, adherent)	0.98	< 4.99	0.98	< 4.99	0.976	< 4.99	–	–
KMS-11 (myeloma, suspension)	0.931	< 4.99	0.965	< 4.99	0.979	< 4.99	–	–
KYAE-1 (oesophagus, suspension)	0.933	< 4.99	0.979	< 4.99	0.356	6.61	–	–
TE-5 (oesophagus, adherent, top dose 5.12 µM)	–	–	–	–	–	–	0.812	5.48
TE-6 (oesophagus, adherent, top dose 5.12 µM)	–	–	–	–	–	–	0.803	5.51
TE-8 (oesophagus, adherent, top dose 5.12 µM)	–	–	–	–	–	–	0.845	5.39
TE-9 (oesophagus, adherent, top dose 5.12 µM)	–	–	–	–	–	–	0.925	< 5.29
TE-10 (oesophagus, adherent, top dose 5.12 µM)	–	–	–	–	–	–	0.889	< 5.29
TE-11 (oesophagus, adherent, top dose 5.12 µM)	–	–	–	–	–	–	0.966	< 5.29

Cell Line	AUC (CX-5461)	pIC50 (CX-5461)	AUC (STF-62247)	pIC50 (STF-62247)	AUC (CP724714)	pIC50 (CP724714)	AUC (ZSTK474)	pIC50 (ZSTK474)
TE-12 (oesophagus, suspension, top dose 5.12 µM)	–	–	–	–	–	–	0.617	6.14
TE-15 (oesophagus, suspension, top dose 5.12 µM)	–	–	–	–	–	–	0.685	5.95
TE-441-T (rhabdomyosarcoma, adherent, top dose 5.12 µM)	–	–	–	–	–	–	0.858	5.40
TGBC1TKB (biliary tract, adherent, top dose 5.12 µM)	–	–	–	–	–	–	0.902	< 5.29
TGBC11TKB (stomach, adherent, top dose 5.12 µM)	–	–	–	–	–	–	0.983	< 5.29
TGBC24TKB (biliary tract, adherent, top dose 5.12 µM)	–	–	–	–	–	–	0.757	5.78
TGW (neuroblastoma, adherent, top dose 5.12 µM)	–	–	–	–	–	–	0.806	5.66
THP-1 (acute myeloid leukaemia, suspension, top dose 5.12 µM)	–	–	–	–	–	–	0.73	5.87
TK10 (kidney, adherent, top dose 5.12 µM)	–	–	–	–	–	–	0.636	6.08
TK (B-cell lymphoma, suspension, top dose 5.12 µM)	–	–	–	–	–	–	0.554	6.35
TMK-1 (stomach, adherent, top dose 5.12 µM)	–	–	–	–	–	–	0.923	< 5.29
TOV-21G (ovary, adherent, top dose 5.12 µM)	–	–	–	–	–	–	0.822	5.48
TOV-112D (ovary, adherent, top dose 5.12 µM)	–	–	–	–	–	–	0.602	6.21
TT2609-C02 (thyroid, adherent, top dose 5.12 µM)	–	–	–	–	–	–	0.878	< 5.29
TT (thyroid, adherent, top dose 5.12 µM)	–	–	–	–	–	–	0.903	< 5.29
TUR (B-cell lymphoma, suspension, top dose 5.12 µM)	–	–	–	–	–	–	0.58	6.28
TYK-nu (ovary, adherent, top dose 5.12 µM)	–	–	–	–	–	–	0.961	< 5.29
U031 (kidney, adherent, top dose 5.12 µM)	–	–	–	–	–	–	0.658	6.05
U251 (glioma, adherent, top dose 5.12 µM)	–	–	–	–	–	–	0.902	< 5.29
U-2-OS (osteosarcoma, adherent, top dose 5.12 µM)	–	–	–	–	–	–	0.896	< 5.29
U-118-MG (glioma, adherent, top dose 5.12 µM)	–	–	–	–	–	–	0.978	< 5.29
U-698-M (B-cell leukaemia, suspension, top dose 5.12 µM)	–	–	–	–	–	–	0.873	5.31
UACC-62 (melanoma, adherent, top dose 5.12 µM)	–	–	–	–	–	–	0.873	5.32
UACC-257 (melanoma, adherent, top dose 5.12 µM)	–	–	–	–	–	–	0.808	5.46
UACC-812 (breast, adherent, top dose 5.12 µM)	–	–	–	–	–	–	0.783	5.68
UACC-893 (breast, adherent, top dose 5.12 µM)	–	–	–	–	–	–	0.681	5.91

Cell Line	AUC (CX-5461)	pIC50 (CX-5461)	AUC (STF-62247)	pIC50 (STF-62247)	AUC (CP724714)	pIC50 (CP724714)	AUC (ZSTK474)	pIC50 (ZSTK474)
UM-UC-3 (bladder, adherent, top dose 5.12 µM)	–	–	–	–	–	–	0.616	6.19
UMC-11 (lung carcinoid, adherent, top dose 5.12 µM)	–	–	–	–	–	–	0.938	< 5.29
UWB1.289 (ovary, adherent, top dose 5.12 µM)	–	–	–	–	–	–	0.81	5.34
VA-ES-BJ (soft tissue, adherent, top dose 5.12 µM)	–	–	–	–	–	–	0.956	< 5.29
VAL (B-cell lymphoma, suspension, top dose 5.12 µM)	–	–	–	–	–	–	0.494	6.51
VCaP (prostate, adherent, top dose 5.12 µM)	–	–	–	–	–	–	0.534	6.40
VM-CUB-1 (bladder, adherent, top dose 5.12 µM)	–	–	–	–	–	–	0.966	< 5.29
VMRC-MELG (melanoma, adherent, top dose 5.12 µM)	–	–	–	–	–	–	0.961	< 5.29
VMRC-RCW (kidney, adherent, top dose 5.12 µM)	–	–	–	–	–	–	0.836	5.51
VMRC-RCZ (kidney, adherent, top dose 5.12 µM)	–	–	–	–	–	–	0.672	5.98
WIL2-NS (lymphoid neoplasm, suspension, top dose 5.12 µM)	–	–	–	–	–	–	0.364	6.84
WM35 (melanoma, adherent, top dose 5.12 µM)	–	–	–	–	–	–	0.67	6.02
WM278 (melanoma, adherent, top dose 5.12 µM)	–	–	–	–	–	–	0.823	5.45
WM793B (melanoma, adherent, top dose 5.12 µM)	–	–	–	–	–	–	0.827	5.44
WM1552C (melanoma, adherent, top dose 5.12 µM)	–	–	–	–	–	–	0.56	6.33
WM-115 (melanoma, adherent, top dose 5.12 µM)	–	–	–	–	–	–	0.613	6.15
WSU-DLCL2 (B-cell lymphoma, suspension, top dose 5.12 µM)	–	–	–	–	–	–	0.721	5.93
WSU-NHL (lymphoid neoplasm, suspension, top dose 5.12 µM)	–	–	–	–	–	–	0.87	5.42
YAPC (pancreas, adherent, top dose 5.12 µM)	–	–	–	–	–	–	0.88	< 5.29
YH-13 (glioma, adherent, top dose 5.12 µM)	–	–	–	–	–	–	0.731	5.82
YKG-1 (glioma, adherent, top dose 5.12 µM)	–	–	–	–	–	–	0.807	5.58
YMB-1-E (breast, adherent, top dose 5.12 µM)	–	–	–	–	–	–	0.585	6.22
YT (lymphoid neoplasm, suspension, top dose 5.12 µM)	–	–	–	–	–	–	0.141	7.50
huH-1 (liver, adherent, top dose 5.12 µM)	–	–	–	–	–	–	0.979	< 5.29
no-10 (glioma, adherent, top dose 5.12 µM)	–	–	–	–	–	–	0.902	< 5.29
no-11 (glioma, adherent, top dose 5.12 µM)	–	–	–	–	–	–	0.815	5.42
